Laboratory results published in article PMC12150326 (The Journal of Organic Chemistry, 2025).
Read-outs that look alike come from different tables or passages of the source.

What was measured:
NCI-H322M [1] = type: cell-based, human; details: for GI50: Homo sapiens, NCI-H322M
Description: (aR)-6, (aS)-6, (aS)-iso -6, and (aR)-iso -6 were submitted to the 60 Cell Screen panel and evaluated at 5 doses (100 μM, 10 μM, 1 μM, 0.1 μM, and 0.01 μM). […] The complete report from this submission is available at the publisher’s Web site as a separate Supporting Information file. For COMPARE analysis, TGI levels of response for (aR)-DM-MTC (6) and (aS)-iso-DM-MTC were compared to those of several established tubulin inhibitors previously tested in the NCI-60 screen.

NCI-H322M [2] = tested on: NCI-H322M; set-up: method as in NCI-60 database; details: NCI-H322M ref NCI-60 database, cited from earlier work

With `COc1cc(C)c(-c2ccc(OC)c(=O)cc2C)c(OC)c1OC` (single isomer, unassigned) [(aR)-6] the Log10GI50 (NCI-H322M [1]) was -5.18 Molar, the Log10LC50 (NCI-H322M [1]) was greater than -4.00 Molar and the Log10TGI (NCI-H322M [1]) was greater than -4.00 Molar. For the same compound, the GI50 (NCI-H322M [1]) was 6.61 µM and the Log10GI50 (NCI-H322M [1]; listed as (aR)-DM-MTC) was -5.18 Molar.
`COc1cc(C)c(-c2ccc(=O)c(OC)cc2C)c(OC)c1OC` (single isomer, unassigned) [(aR)-iso-6] gave a Log10GI50 (NCI-H322M [1]) greater than -4.00 Molar, a Log10LC50 (NCI-H322M [1]) greater than -4.00 Molar and a Log10TGI (NCI-H322M [1]) greater than -4.00 Molar.
Work on `COc1cc(C)c(-c2ccc(OC)c(=O)cc2C)c(OC)c1OC` (single isomer, unassigned) [(aS)-6] yielded a Log10GI50 (NCI-H322M [1]) greater than -4.00 Molar, a Log10LC50 (NCI-H322M [1]) greater than -4.00 Molar and a Log10TGI (NCI-H322M [1]) greater than -4.00 Molar.
With `COc1cc(C)c(-c2ccc(=O)c(OC)cc2C)c(OC)c1OC` (single isomer, unassigned) [(aS)-iso-6] the Log10GI50 (NCI-H322M [1]) was -4.22 Molar, the Log10LC50 (NCI-H322M [1]) was greater than -4.00 Molar and the Log10TGI (NCI-H322M [1]) was greater than -4.00 Molar. The GI50 (NCI-H322M [1]) was 60.3 µM and the Log10GI50 (NCI-H322M [1]; […]) was -4.22 Molar.
In the case of `COc1cc2c(c(OC)c1OC)-c1ccc(OC)c(=O)cc1[C@@H](NC(C)=O)CC2` [Colchicine, (−)-Colchicine], the GI50 (NCI-H322M [2]) is given as 0.06 µM, the Log10GI50 (NCI-H322M [2]) is given as -7.21 Molar and the Log10LC50 (NCI-H322M [2]) is given as greater than -4.00 Molar. For the same compound, the Log10TGI (NCI-H322M [2]; listed as 757/1) was -7.40 Molar, the Log10GI50 (NCI-H322M [2]; listed as 757/9) was -7.37 Molar and the Log10GI50 (NCI-H322M [2]; listed as 757/21) was -7.21 Molar. The Log10TGI (NCI-H322M [2]; listed as 757/21) was greater than -4.00 Molar.
